Assay results taken from PubChem BioAssay AID1963576 (National Center for Advancing Translational Sciences (NCATS), 2024).
In all, about 46,000 compounds went through this assay and about 60 (0.1%) were called active. Not shown: some 3% with an inconclusive outcome. Calls follow the shape of the dose curve; as a rule, active = well fitted inhibition curve with a large enough effect; inconclusive = small, poorly fitted or top-dose-only effect; inactive = no such curve, though single readings can be large or run the other way. The list shows a part of the results.

Test: Primary qHTS assay for Inhibitors of ovarian cancer metastasis using an organotypic tumor microenvironment (TME) model. Also: nearly all actives have a fitted effect of over 65% in size.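 As to activity change, negative = inhibition: plate controls were DMSO wells for no effect and tomatine positive control wells for full effect.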
Details: SKOV3ip1-GFP adhesion/invasion on 3D omental model, fluorescence; series mostly up to 45.8 µM; activity change, negative = inhibition: at the top concentration
Summary of the method: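 A 3D layer of primary human omental fibroblasts, mesothelial cells, fibronectin and collagen I, grown 48 hr, received SKOV3ip1-GFP cells in serum-free medium plus compounds at 0.36-46 umol/L. After 2 hr RT and 16 hr 37 C, fixed adherent GFP cells were counted; normalized to DMSO and tomatine.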

SMILES	activity change, negative = inhibition	outcome
Cc1nn2c(C)c(C(=O)NCc3cccc(Br)c3)cnc2c1-c1ccccc1	inactive: -4.85%	
Cc1ccc(-c2nnc(Nc3ccc(O)cc3)c3ccccc23)cc1S(=O)(=O)NC(C)(C)CO		inactive
CO[C@H]1O[C@@H]2O[C@@]3(C)CC[C@@H]4[C@@H](C)CC[C@@H]([C@H]1C)[C@@]24OO3	inactive: -30.6%	
CCOc1ccc(S(=O)(=O)N(CC(=O)Nc2ccc(OC)c(Cl)c2)c2ccccc2)cc1	inactive: 3.18%	
CCc1cc(=O)oc2c(C)c(OCC(=O)Nc3ccc(S(=O)(=O)N(CC)CC)cc3)ccc12	inactive: -6.86%	
CCOc1ccc(C(=O)NCC(c2ccc3c(c2)OCO3)N2CCN(C)CC2)cc1 (stereo unspecified)	inactive: 6.06%	
CCOc1ccc(NC(=O)N2CCC(n3c(C)nc4cccnc43)CC2)cc1	inactive: -2.96%	
CCOc1ccc2nc(Cl)c(C3CC(c4ccccc4)=NN3C(=O)CCC(=O)O)cc2c1 (stereo unspecified)		inactive
Cc1ccc(/C=C/c2onc(C)c2S(=O)(=O)N2CCC(C(=O)N3CCN(c4cc(C)ccc4C)CC3)CC2)cc1	inactive: 3.98%	
CC(=O)N1CCc2c(sc3c2c(=O)n(Cc2ccccc2)c(=O)n3Cc2ccccc2Cl)C1		inactive
O=C(NOCC(O)CO)c1cc(Br)c(F)c(F)c1Nc1ccc(I)cc1F (stereo unspecified)	inactive: 6.37%	
COc1ccc(Nc2nc3c(S(=O)(=O)c4ccc(C)cc4)nnn3c3ccsc23)cc1Cl	inactive: -2.96%	
COc1cc2c(cc1OC)C(COc1ccccc1OC)N(C(=O)c1ccc(S(=O)(=O)N(C)C)cc1)CC2 (stereo unspecified)	inactive: 3.58%	
Cc1ccc(Cl)cc1N1CCN(C(=O)COc2cc(=O)n(C)c3ccccc23)CC1	inactive: -0.923%	
COc1ccc(Nc2oc(/C=C/c3cc(OC)c(OC)c(OC)c3)nc2C#N)cc1	inactive: -0.94%	
CC1CCN(S(=O)(=O)c2ccc3c(c2)N(CC(=O)NC(C)(C)C)C(=O)CS3)CC1	inactive: 0.634%	
COc1cccc(CNC(=O)Cn2c(=O)nc(-c3ccccc3F)c3cc(Cl)ccc32)c1	inactive: 19.5%	
COc1ccc(NC(=O)C2CCN(c3ccc(Sc4ccc(C)cc4)nn3)CC2)cc1	inactive: -7.38%	
COC(=O)c1cc2sc(Cl)cc2n1Cc1nc(-c2ccccc2C)oc1C	inactive: -2.21%	
CCC1CCCCN1CCCNC(=O)c1c(O)nc2cc(C)ccn2c1=O (stereo unspecified)	inactive: 2.11%	
CC1CN(C(=O)N2CCC(C(=O)NCc3cccs3)CC2)c2ccccc2O1 (stereo unspecified)	inactive: 5.93%	
CCCCN(CC)C(=O)CSc1nc2ccccc2c(=O)n1Cc1ccco1		inactive
CCOc1ccc(C(=O)c2oc3ccccc3c2NC(=O)c2cc(=O)c3ccc(C)cc3o2)cc1	inactive: -4.75%	

SMILES	activity change, negative = inhibition	outcome
COc1ccc(NC(=O)c2ccco2)cc1NC(=O)c1cc(Br)ccc1Cl	inactive: 0.0491%	
COc1ccc(S(=O)(=O)N(CC(=O)NCCc2ccccc2)c2ccc(Cl)cc2)cc1		inactive
CCOC(=O)c1ccccc1NC(=O)CSc1cn(CC(=O)N2CCCCCC2)c2ccccc12	inactive: 1.69%	
Cc1oc2ncnc(N3CCCCC3)c2c1C(=O)N1CCN(c2ccc(Cl)cc2)CC1	inactive: -2.49%	
COc1ccccc1C(=O)Nc1ccc(S(=O)(=O)Nc2nc(C)cc(C)n2)cc1	inactive: -2.73%	
Cc1ccc(NC(=O)CSc2nnc(NC(=O)NC3CCCCC3)s2)cc1		inactive
CCc1ccc(NC(=O)CCCc2nnc3n(C(C)CC)c(=O)c4sccc4n23)cc1 (stereo unspecified)	inactive: -9.24%	
CCCCN(CC)CCNC(=O)c1nn(C)c2c1CS(=O)(=O)c1ccccc1-2	inactive: -1.23%	
COc1ccc(-c2nc3c4ccccc4n(CC(=O)N4CCN(c5ccccc5F)CC4)c(=O)n3n2)cc1		inactive
COc1ccc2c(CNCc3cccs3)c(C(=O)O)n(Cc3cccc(F)c3)c2c1	inactive: 3.23%	
COc1ccc(NC(=O)c2cc(C(C)=O)n3ccccc23)cc1Cl		inactive
COC(=O)c1ccccc1NC(=O)c1sc2nc(C)cc(C)c2c1NC(=O)c1ccccc1Cl	inactive: -4.51%	
Cc1cc(/C=C(\C#N)C(=O)Nc2ccccc2)c(C)n1-c1ccc(F)cc1		inactive
COc1ccc(CNC(=O)c2cc(C3CC3)nc3c2c(C)nn3-c2cccc(Cl)c2C)cc1	inactive: 2.58%	
CCn1c(=O)n(-c2ccc3c(c2)OCO3)c2nc(-c3cc(OC)ccc3OC)nc(C(N)=O)c21		inactive
COc1ccc(CNC(=O)Cn2ccc3cc(S(=O)(=O)N4CCCC4)ccc32)c(OC)c1	inactive: 5.91%	
COc1ccc(OC)c(-c2nnc3n(CCc4ccccc4)c(=O)c4ccccc4n23)c1	inactive: -2.86%	
Cc1cccc(C(=O)Nc2ccc3nc(SCC(=O)N4CCc5ccccc54)sc3c2)c1	inactive: -5.85%	
COc1cc(NC(=O)c2nc(-c3ccc(Cl)cc3)n3c2CCCCC3)cc(OC)c1OC	inactive: 1.14%	
O=C(Cc1ccccc1)Nc1sc2c(c1C(=O)Nc1ccccc1Cl)CCCC2	inactive: -32%	
CCOC(=O)c1cccc(NC(=O)C2CCN(S(=O)(=O)c3c(C)noc3/C=C/c3ccc(C)cc3)CC2)c1		inactive
COc1ccc(NC(=O)c2ncoc2-c2ccco2)cc1Cl	inactive: -18.8%	
CC(CNC(=O)c1ccc2nc(CCc3ccccc3)oc2c1)c1ccccc1 (stereo unspecified)	inactive: -1.84%	
